Test results reported in PubChem BioAssay (NCI).
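Step 1: Grow cells in 96-well plates. Step 2: Expose to compound for 48 hours at 5 concentrations. Step 3: Interpolate endpoints linearly; if unreached, use highest concentration. GI50 = concentration required for 50% inhibition of growth. TGI marks complete inhibition of growth.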

Test system: NCI-H322M lung
Assay: NCI-60 cell line screen, 48 h

SMILES	TGI [µM]	GI50 [µM]
Cc1cc(-n2c(/C=C/c3ccc(Cl)cc3)nc3cc(Cl)ccc3c2=O)on1	24.9	–
Cc1ccc(NC(=O)/C(CC2N=c3c(ccc4c(O)c5ccccc5c(O)c34)=NC2O)=N/NC(C)(C)C)cc1 (stereo unspecified)	28.1	–
Cn1c(=O)n(CCCO)c(=O)c2c1nc(Oc1cccc(OC(F)(F)F)c1)n2Cc1ccc(Cl)cc1	30.6	15
CCOP(=S)(OCC)Oc1ccc2c(c1)OC(=O)C1(Cl)C2(C)C2(Cl)C(=O)Oc3cc(OP(=S)(OCC)OCC)ccc3C12C (stereo unspecified)	29.8	–
C(=N\c1nc2cc3sc(/N=C/c4cccs4)nc3cc2s1)/c1cccs1	> 100	–
O=C1c2ccccc2-c2ccccc2C(=O)C1(Br)Br	31.7	–
CCOC(=O)c1c(NC(=O)COc2cccc3cccnc23)sc(C(=O)N(C)C)c1C	> 100	26.8
CCC(O)CC1OC2(CCC1C)CC1OC(=O)/C=C\C(C)(O)C(O)C(C)C(O)C(OC3CC(OC)C(O)C(C)O3)C(O)C(C)(O)CCC/C=C/C3CC(C)COC3(O)CC(O2)C1C (stereo unspecified)	> 92.6	–
COC(=O)C1Cc2c([nH]c3ccccc23)C(C2CCCCC2)N1 (stereo unspecified)	> 100	–
N#Cc1c(-c2ccc([N+](=O)[O-])cc2)cc(-c2ccc(Nc3ccnc4cc(C(F)(F)F)ccc34)cc2)[nH]c1=O	> 100	–
COc1ccc2c(c1)C(N)=C(c1ccccc1OC)C2=O	> 100	–
COc1ccc(C(=C[N+](=O)[O-])c2ccc(OC)cc2)cc1	> 82.6	–
O=C(CCC(C(=O)OCc1ccccc1)C(=O)OCc1ccccc1)Nc1ccc(OCc2ccccc2)cc1	> 100	–
COC(=O)C1C(O)C(C)C(=O)C(C)/C=C\C=C(C)C(=O)Nc2c(C)c(OC(C)=O)c3c(c2O)C(=O)C(C)=C2OCOC(=C23)C(C)=CC(C)(O)C(O)C(C)C1O (stereo unspecified)	> 100	–
CCCCC1CC(c2ccc(Cl)cc2)=NO1 (stereo unspecified)	> 100	–
C=C1C(=O)O[C@H]2[C@H]1CC/C(CNC(=O)c1cccc3ccccc13)=C\CC[C@@]1(C)O[C@@H]21	23.3	11
O=C1NN=C2C=C(c3ccc(Cl)cc3)CC(c3cccc(Br)c3)C12 (stereo unspecified)	> 100	–
COc1nc(NC2OC(COC(C)=O)C(OC(C)=O)C(OC(C)=O)C2OC(C)=O)c2c(OC(C)=O)c(C)c(=O)oc2n1 (stereo unspecified)	> 100	–
